Laboratory results taken from the supplement of paper PMC8728848.
The list shows a part of the results.

Key:
Assay in all cases: glycan array binding signal (z-score within array); higher = stronger binding
Settings in all cases: glycan notation: IUPAC condensed, linker removed
[1] = target: Fuc(a1-2)Gal(b1-4)[Fuc(a1-3)]GlcNAc(b1-2)[Fuc(a1-2)Gal(b1-4)[Fuc(a1-3)]GlcNAc(b1-4)]Man(a1-3)[Fuc(a1-2)Gal(b1-4)[Fuc(a1-3)]GlcNAc(b1-2)Man(a1-6)]Man(b1-4)GlcNAc(b1-4)GlcNAc
Procedure, shortened: (§1)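 Columns mapping to the same glycan were averaged after glycan names were converted to IUPAC-condensed notation. The data come from 3228 arrays in the Consortium for Functional Glycomics database, limited to those with an available protein sequence. Binding is reported as a within-array Z-score averaged across arrays of one protein sequence and across linkers.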

[2] = target: Fuc(a1-2)Gal(b1-4)[Fuc(a1-3)]GlcNAc(b1-3)Gal(b1-4)[Fuc(a1-3)]GlcNAc
Procedure, shortened: as §1

[3] = target: Fuc(a1-2)Gal(b1-4)[Fuc(a1-3)]GlcNAc(b1-3)Gal(b1-4)[Fuc(a1-3)]GlcNAc(b1-3)Gal(b1-4)[Fuc(a1-3)]GlcNAc
Procedure, shortened: as §1

[4] = target: Fuc(a1-2)Gal(b1-4)[Fuc(a1-3)]GlcNAc(b1-3)GalNAc
Procedure, shortened: as §1

Fuc(a1-2)Gal6S(b1-4)Glc = target: Fuc(a1-2)Gal6S(b1-4)Glc
Procedure, shortened: as §1

[5] = target: Fuc(a1-2)Gal6S(b1-4)Glc6S
Procedure, shortened: as §1

[6] = target: Fuc(a1-2)Gal6S(b1-4)GlcNAc
Procedure, shortened: as §1

Fuc(a1-2)[Gal(a1-3)]Gal = target: Fuc(a1-2)[Gal(a1-3)]Gal
Procedure, shortened: as §1

[7] = target: Fuc(a1-2)[Gal(a1-3)]Gal(b1-3)GlcNAc
Procedure, shortened: as §1

[8] = target: Fuc(a1-2)[Gal(a1-3)]Gal(b1-3)GlcNAc(b1-2)Man(a1-3)[Fuc(a1-2)[Gal(a1-3)]Gal(b1-3)GlcNAc(b1-2)Man(a1-6)]Man(b1-4)GlcNAc(b1-4)GlcNAc
Procedure, shortened: as §1

[9] = target: Fuc(a1-2)[Gal(a1-3)]Gal(b1-3)GlcNAc(b1-3)GalNAc
Procedure, shortened: as §1

[10] = target: Fuc(a1-2)[Gal(a1-3)]Gal(b1-4)Glc
Procedure, shortened: as §1

[11] = target: Fuc(a1-2)[Gal(a1-3)]Gal(b1-4)GlcNAc
Procedure, shortened: as §1

[12] = target: Fuc(a1-2)[Gal(a1-3)]Gal(b1-4)GlcNAc(b1-2)Man(a1-3)[Fuc(a1-2)[Gal(a1-3)]Gal(b1-4)GlcNAc(b1-2)Man(a1-6)]Man(b1-4)GlcNAc(b1-4)GlcNAc
Procedure, shortened: as §1

[13] = target: Fuc(a1-2)[Gal(a1-3)]Gal(b1-4)GlcNAc(b1-2)Man(a1-3)[Fuc(a1-2)[Gal(a1-3)]Gal(b1-4)GlcNAc(b1-2)Man(a1-6)]Man(b1-4)GlcNAc(b1-4)[Fuc(a1-6)]GlcNAc
Procedure, shortened: as §1

[14] = target: Fuc(a1-2)[Gal(a1-3)]Gal(b1-4)GlcNAc(b1-3)GalNAc
Procedure, shortened: as §1

[15] = target: Fuc(a1-2)[Gal(a1-3)]Gal(b1-4)[Fuc(a1-3)]Glc
Procedure, shortened: as §1

[16] = target: Fuc(a1-2)[Gal(a1-3)]Gal(b1-4)[Fuc(a1-3)]GlcNAc
Procedure, shortened: as §1

[17] = target: Fuc(a1-2)[Gal(a1-3)]Gal(b1-4)[Fuc(a1-3)]GlcNAc(b1-3)GalNAc
Procedure, shortened: as §1

[18] = target: Fuc(a1-2)[Gal(a1-4)]Gal(b1-4)GlcNAc
Procedure, shortened: as §1

[19] = target: Fuc(a1-2)[GalNAc(a1-3)]Gal
Procedure, shortened: as §1

[20] = target: Fuc(a1-2)[GalNAc(a1-3)]Gal(b1-3)GalNAc(a1-3)[Fuc(a1-2)]Gal(b1-4)GlcNAc
Procedure, shortened: as §1

[21] = target: Fuc(a1-2)[GalNAc(a1-3)]Gal(b1-3)GlcNAc
Procedure, shortened: as §1

[22] = target: Fuc(a1-2)[GalNAc(a1-3)]Gal(b1-3)GlcNAc(b1-2)Man(a1-3)[Fuc(a1-2)[GalNAc(a1-3)]Gal(b1-3)GlcNAc(b1-2)Man(a1-6)]Man(b1-4)GlcNAc(b1-4)GlcNAc
Procedure, shortened: as §1

[23] = target: Fuc(a1-2)[GalNAc(a1-3)]Gal(b1-3)GlcNAc(b1-3)GalNAc
Procedure, shortened: as §1

[24] = target: Fuc(a1-2)[GalNAc(a1-3)]Gal(b1-4)Glc
Procedure, shortened: as §1

[25] = target: Fuc(a1-2)[GalNAc(a1-3)]Gal(b1-4)GlcNAc
Procedure, shortened: as §1

[26] = target: Fuc(a1-2)[GalNAc(a1-3)]Gal(b1-4)GlcNAc(b1-2)Man(a1-3)[Fuc(a1-2)[GalNAc(a1-3)]Gal(b1-4)GlcNAc(b1-2)Man(a1-6)]Man(b1-4)GlcNAc(b1-4)GlcNAc
Procedure, shortened: as §1

[27] = target: Fuc(a1-2)[GalNAc(a1-3)]Gal(b1-4)GlcNAc(b1-3)Gal(b1-4)GlcNAc
Procedure, shortened: as §1

[28] = target: Fuc(a1-2)[GalNAc(a1-3)]Gal(b1-4)GlcNAc(b1-3)Gal(b1-4)GlcNAc(b1-3)Gal(b1-4)GlcNAc
Procedure, shortened: as §1

[29] = target: Fuc(a1-2)[GalNAc(a1-3)]Gal(b1-4)GlcNAc(b1-3)GalNAc
Procedure, shortened: as §1

[30] = target: Fuc(a1-2)[GalNAc(a1-3)]Gal(b1-4)[Fuc(a1-3)]GlcNAc
Procedure, shortened: as §1

[31] = target: Fuc(a1-2)[GalNAc(a1-3)]Gal(b1-4)[Fuc(a1-3)]GlcNAc(b1-3)GalNAc
Procedure, shortened: as §1

[32] = target: Fuc(a1-2)[GalNAc(a1-4)]Gal(b1-4)GlcNAc
Procedure, shortened: as §1

[33] = target: Fuc(a1-2)[GalNAc(b1-3)]Gal
Procedure, shortened: as §1

Fuc(a1-3)GlcNAc = target: Fuc(a1-3)GlcNAc
Procedure, shortened: as §1

[34] = target: Fuc(a1-3)[Gal(b1-4)]Glc6S
Procedure, shortened: as §1

[35] = target: Fuc(a1-3)[Gal(b1-4)]GlcNAc
Procedure, shortened: as §1

[36] = target: Fuc(a1-3)[Gal(b1-4)]GlcNAc(b1-2)Man(a1-3)[Fuc(a1-3)[Gal(b1-4)]GlcNAc(b1-2)Man(a1-6)]Man(b1-4)GlcNAc(b1-4)GlcNAc
Procedure, shortened: as §1

[37] = target: Fuc(a1-3)[Gal(b1-4)]GlcNAc(b1-2)Man(a1-3)[Fuc(a1-3)[Gal(b1-4)]GlcNAc(b1-2)Man(a1-6)]Man(b1-4)GlcNAc(b1-4)[Fuc(a1-6)]GlcNAc
Procedure, shortened: as §1

[38] = target: Fuc(a1-3)[Gal(b1-4)]GlcNAc(b1-3)Gal(b1-3)[Fuc(a1-4)]GlcNAc
Procedure, shortened: as §1

[39] = target: Fuc(a1-3)[Gal(b1-4)]GlcNAc(b1-3)GalNAc
Procedure, shortened: as §1

[40] = target: Fuc(a1-3)[Gal(b1-4)]GlcNAc(b1-4)Gal(b1-4)[Fuc(a1-3)]GlcNAc
Procedure, shortened: as §1

[41] = target: Fuc(a1-3)[Gal(b1-4)]GlcNAc(b1-4)Gal(b1-4)[Fuc(a1-3)]GlcNAc(b1-4)Gal(b1-4)[Fuc(a1-3)]GlcNAc
Procedure, shortened: as §1

[42] = target: Fuc(a1-3)[Gal(b1-4)]GlcNAc(b1-6)[Gal(b1-3)GlcNAc(b1-3)]Gal(b1-4)Glc
Procedure, shortened: as §1

B1: Gal 2 (Canis lupus) (protein)
chain: MSGKFEVMNMDMKLGGTLKIKGKIAGDADGFVINLGQGSDKLNLHFNPRFHESVIVCNSRNWGQEQRDKHMCFSPGSEVKFTVTFENDGFKVKLPDGHQLTFPNRLGHSHLSYLGVQGGLKVSSFKIE
glycan array binding signal (z-score) [1]: 0.249 | glycan array binding signal (z-score) [2]: -0.225 | glycan array binding signal (z-score) [3]: -0.218 | glycan array binding signal (z-score) [4]: 0.409 | glycan array binding signal (z-score) (Fuc(a1-2)Gal6S(b1-4)Glc): -0.473 | glycan array binding signal (z-score) [5]: -0.002 | glycan array binding signal (z-score) [6]: -0.268 | glycan array binding signal (z-score) (Fuc(a1-2)[Gal(a1-3)]Gal): -0.164 | glycan array binding signal (z-score) [7]: -0.127 | glycan array binding signal (z-score) [8]: 0.077 | glycan array binding signal (z-score) [9]: -0.08 | glycan array binding signal (z-score) [10]: -0.096 | glycan array binding signal (z-score) [11]: 0.681 | glycan array binding signal (z-score) [12]: 15.5 | glycan array binding signal (z-score) [13]: 6.28 | glycan array binding signal (z-score) [14]: -0.25 | glycan array binding signal (z-score) [15]: 0.003 | glycan array binding signal (z-score) [16]: -0.049 | glycan array binding signal (z-score) [17]: 0.088 | glycan array binding signal (z-score) [18]: 0.295 | glycan array binding signal (z-score) [19]: -0.339 | glycan array binding signal (z-score) [20]: -0.173 | glycan array binding signal (z-score) [21]: -0.019 | glycan array binding signal (z-score) [22]: -0.046 | glycan array binding signal (z-score) [23]: -0.073 | glycan array binding signal (z-score) [24]: 0.159 | glycan array binding signal (z-score) [25]: -0.266 | glycan array binding signal (z-score) [26]: 0.616 | glycan array binding signal (z-score) [27]: 0.053 | glycan array binding signal (z-score) [28]: 0.067 | glycan array binding signal (z-score) [29]: -0.214 | glycan array binding signal (z-score) [30]: -0.065 | glycan array binding signal (z-score) [31]: -0.296 | glycan array binding signal (z-score) [32]: 0.039 | glycan array binding signal (z-score) [33]: -0.13 | glycan array binding signal (z-score) (Fuc(a1-3)GlcNAc): -0.006 | glycan array binding signal (z-score) [34]: -0.281 | glycan array binding signal (z-score) [35]: 0.078 | glycan array binding signal (z-score) [36]: 0.204 | glycan array binding signal (z-score) [37]: 0.344 | glycan array binding signal (z-score) [38]: -0.261 | glycan array binding signal (z-score) [39]: -0.395 | glycan array binding signal (z-score) [40]: 0.043 | glycan array binding signal (z-score) [41]: -0.23 | glycan array binding signal (z-score) [42]: -0.17
